From the supplement of paper PMC4967469
By IC50 is meant the dose at which the fit gives 50% viability; a fit beyond the top or the lowest dose is shown as a bound at that dose. AUC sums up the same curve from the lowest dose to the 256-fold higher top dose; it is 1 without any effect and falls as sensitivity rises. A top dose marked as inferred is not printed in the source and was worked back from the curve model. For part of these data: Where an entry number is given, a second screen of the drug exists; the two often differ.

These cell lines were tested with CC(C)=CC[C@@H](O)C1=CC(=O)c2c(O)ccc(O)c2C1=O [Shikonin] (assay: Viability of human cancer cell lines after 72 h of drug (GDSC screen)). Settings: top dose 16 µM; top dose inferred.
Method: (§1)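 Human cancer cell lines in 384-well plates, medium with 10% serum, drug for 72 h over a 256-fold dose range (nine 2-fold or five 4-fold steps up to the top dose). Adherent lines were fixed and stained with the nucleic acid dye Syto60, suspension lines read with resazurin; signal relative to control wells, capped at 0 and 100%. One two-parameter sigmoid per drug and line, fitted in a mixed model over all curves with the slope shared within a line.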

Q: For 769-P (kidney, adherent), which AUC is on record?
A: 0.429

Q: And the IC50?
A: 626 nM

Q: Which AUC does the source give for A204 (rhabdomyosarcoma, adherent) here?
A: 0.235

Q: And the IC50?
A: 132 nM

Q: Which results are given for “BEN (non-small cell lung carcinoma, adherent)”?
A: AUC: 0.528; IC50: 1210 nM

Q: BFTC-909 (kidney, adherent) was tested. Which AUC did it give?
A: 0.55

Q: What about the IC50 of the same cell line?
A: 1370 nM

Q: With BICR31 (head and neck, adherent) as the cell line, how does the AUC read?
A: 0.288

Q: What about the IC50 of the same cell line?
A: 250 nM

Q: What does the source list for CAMA-1 (breast, adherent)?
A: AUC: 0.563; IC50: 1550 nM

Q: Which results are given for COLO-792 (melanoma, adherent)?
A: AUC: 0.876; IC50: 15500 nM

Q: Which results are given for “COR-L105 (lung adenocarcinoma, adherent)”?
A: AUC: 0.324; IC50: 286 nM

Q: What does the source list for Caov-3 (ovary, adherent)?
A: AUC: 0.492; IC50: 952 nM

Q: With GCT (soft tissue, adherent) as the cell line, how does the AUC read?
A: 0.528

Q: And the IC50?
A: 1180 nM

Q: Which results are given for H2818 (mesothelioma, adherent)?
A: AUC: 0.698; IC50: 3680 nM

Q: For HCC70 (breast, adherent), which AUC is on record?
A: 0.603

Q: And the IC50?
A: 1910 nM

Q: Which AUC does the source give for HO-1-N-1 (head and neck, adherent) here?
A: 0.353

Q: What about the IC50 of the same cell line?
A: 406 nM

Q: How did the AUC turn out when HPAC (pancreas, adherent) was run?
A: 0.516

Q: What about the IC50 of the same cell line?
A: 1120 nM

Q: For HPAF-II (pancreas, adherent), which AUC is on record?
A: 0.525

Q: What about the IC50 of the same cell line?
A: 1190 nM

Q: Which results are given for HSC-3 (head and neck, adherent)?
A: AUC: 0.322; IC50: 347 nM

Q: With HTC-C3 (thyroid, adherent) as the cell line, how does the AUC read?
A: 0.409

Q: How did the AUC turn out when J82 (bladder, adherent) was run?
A: 0.249

Q: What about the IC50 of the same cell line?
A: 190 nM

Q: How did the AUC turn out when KOSC-2 (head and neck, adherent) was run?
A: 0.575

Q: What about the IC50 of the same cell line?
A: 1620 nM

Q: KP-4 (pancreas, adherent) was tested. Which AUC did it give?
A: 0.33

Q: And the IC50?
A: 343 nM

Q: What does the source list for KYSE-70 (oesophagus, adherent)?
A: AUC: 0.559; IC50: 1470 nM

Q: With KYSE-180 (oesophagus, adherent) as the cell line, how does the AUC read?
A: 0.492

Q: And the IC50?
A: 952 nM

Q: What does the source list for KYSE-270 (oesophagus, adherent)?
A: AUC: 0.251; IC50: 221 nM

Q: Which results are given for “LU-99A (large cell lung carcinoma, adherent)”?
A: AUC: 0.589; IC50: 1750 nM

Q: Which AUC does the source give for ML-1 (thyroid, adherent) here?
A: 0.277

Q: What about the IC50 of the same cell line?
A: 206 nM

Q: Which AUC does the source give for “NCI-H1299 (large cell lung carcinoma, adherent)” here?
A: 0.507

Q: And the IC50?
A: 1050 nM

Q: For “NCI-H1573 (lung adenocarcinoma, adherent)”, which AUC is on record?
A: 0.957

Q: What about the IC50 of the same cell line?
A: > 16000 nM

Q: Which AUC does the source give for “NCI-H1734 (lung adenocarcinoma, adherent)” here?
A: 0.64

Q: And the IC50?
A: 2540 nM

Q: “NCI-H1793 (lung adenocarcinoma, adherent)” was tested. Which AUC did it give?
A: 0.863

Q: What about the IC50 of the same cell line?
A: > 16000 nM

Q: For “NCI-H2170 (lung squamous cell carcinoma, adherent)”, which AUC is on record?
A: 0.586

Q: And the IC50?
A: 1740 nM

Q: What does the source list for “NCI-H2228 (lung adenocarcinoma, adherent)”?
A: AUC: 0.531; IC50: 1270 nM

Q: How did the AUC turn out when PCI-38 (head and neck, adherent) was run?
A: 0.78

Q: And the IC50?
A: 6630 nM

Q: How did the AUC turn out when PL18 (pancreas, adherent) was run?
A: 0.516

Q: And the IC50?
A: 1100 nM

Q: RD (rhabdomyosarcoma, adherent) was tested. Which AUC did it give?
A: 0.319

Q: What about the IC50 of the same cell line?
A: 296 nM

Q: Which AUC does the source give for RT-112 (bladder, adherent) here?
A: 0.3

Q: And the IC50?
A: 261 nM

Q: How did the AUC turn out when SN12C (kidney, adherent) was run?
A: 0.651

Q: What about the IC50 of the same cell line?
A: 2760 nM

Q: For SNU-398 (liver, adherent), which AUC is on record?
A: 0.205

Q: What about the IC50 of the same cell line?
A: 128 nM

Q: Which AUC does the source give for SNU-475 (liver, adherent) here?
A: 0.844

Q: And the IC50?
A: 9520 nM

Q: With SW156 (kidney, adherent) as the cell line, how does the AUC read?
A: 0.618

Q: And the IC50?
A: 2200 nM

Q: For SW837 (large intestine, adherent), which AUC is on record?
A: 0.716

Q: And the IC50?
A: 5060 nM

Q: With SW1088 (glioma, adherent) as the cell line, how does the AUC read?
A: 0.453

Q: What about the IC50 of the same cell line?
A: 716 nM

Q: Which results are given for SW1463 (large intestine, adherent)?
A: AUC: 0.594; IC50: 2180 nM

Q: How did the AUC turn out when VMRC-RCW (kidney, adherent) was run?
A: 0.412

Q: And the IC50?
A: 584 nM

The cell lines below were run with Cc1cc(N2CCOCC2)cc2[nH]c(-c3c(NC[C@@H](O)c4cccc(Cl)c4)cc[nH]c3=O)nc12 [BMS-536924] in the same assay as above. Settings: top dose 4 µM; screen: GDSC drug entry 1091; top dose inferred.
Method: as §1

Q: Which results are given for 769-P (kidney, adherent)?
A: AUC: 0.981; IC50: > 4000 nM

Q: What does the source list for A204 (rhabdomyosarcoma, adherent)?
A: AUC: 0.896; IC50: > 4000 nM

Q: What does the source list for “BEN (non-small cell lung carcinoma, adherent)”?
A: AUC: 0.969; IC50: > 4000 nM

Q: Which results are given for BFTC-909 (kidney, adherent)?
A: AUC: 0.978; IC50: > 4000 nM

Q: CAMA-1 (breast, adherent) was tested. Which AUC did it give?
A: 0.962

Q: What about the IC50 of the same cell line?
A: > 4000 nM

Q: For COLO-792 (melanoma, adherent), which AUC is on record?
A: 0.885

Q: What about the IC50 of the same cell line?
A: > 4000 nM

Q: What does the source list for “COR-L32 (small cell lung carcinoma, suspension)”?
A: AUC: 0.677; IC50: 1330 nM

Q: How did the AUC turn out when “COR-L105 (lung adenocarcinoma, adherent)” was run?
A: 0.884

Q: What about the IC50 of the same cell line?
A: > 4000 nM

Q: For GCT (soft tissue, adherent), which AUC is on record?
A: 0.988

Q: And the IC50?
A: > 4000 nM

Q: How did the AUC turn out when H2818 (mesothelioma, adherent) was run?
A: 0.973

Q: And the IC50?
A: > 4000 nM

Q: How did the AUC turn out when HCC70 (breast, adherent) was run?
A: 0.959

Q: And the IC50?
A: > 4000 nM

Q: What does the source list for HO-1-N-1 (head and neck, adherent)?
A: AUC: 0.926; IC50: > 4000 nM

Q: HPAC (pancreas, adherent) was tested. Which AUC did it give?
A: 0.901

Q: What about the IC50 of the same cell line?
A: > 4000 nM

Q: With HPAF-II (pancreas, adherent) as the cell line, how does the AUC read?
A: 0.743

Q: What about the IC50 of the same cell line?
A: 1580 nM

Q: HSC-3 (head and neck, adherent) was tested. Which AUC did it give?
A: 0.953

Q: What about the IC50 of the same cell line?
A: > 4000 nM

Q: Which results are given for HTC-C3 (thyroid, adherent)?
A: AUC: 0.883; IC50: > 4000 nM

Q: J82 (bladder, adherent) was tested. Which AUC did it give?
A: 0.951

Q: And the IC50?
A: > 4000 nM

Q: What does the source list for KOSC-2 (head and neck, adherent)?
A: AUC: 0.922; IC50: > 4000 nM

Q: For KP-4 (pancreas, adherent), which AUC is on record?
A: 0.987

Q: What about the IC50 of the same cell line?
A: > 4000 nM

Q: Which AUC does the source give for KYSE-180 (oesophagus, adherent) here?
A: 0.916

Q: And the IC50?
A: > 4000 nM

Q: Which AUC does the source give for KYSE-270 (oesophagus, adherent) here?
A: 0.896

Q: And the IC50?
A: 3640 nM

Q: What does the source list for “LU-99A (large cell lung carcinoma, adherent)”?
A: AUC: 0.868; IC50: 3570 nM

Q: What does the source list for ML-1 (thyroid, adherent)?
A: AUC: 0.907; IC50: > 4000 nM

Q: How did the AUC turn out when “NCI-H1299 (large cell lung carcinoma, adherent)” was run?
A: 0.954

Q: What about the IC50 of the same cell line?
A: > 4000 nM

Q: Which AUC does the source give for “NCI-H1573 (lung adenocarcinoma, adherent)” here?
A: 0.904

Q: And the IC50?
A: > 4000 nM

Q: How did the AUC turn out when “NCI-H1650 (lung adenocarcinoma, adherent)” was run?
A: 0.883

Q: What about the IC50 of the same cell line?
A: > 4000 nM

Q: How did the AUC turn out when “NCI-H1793 (lung adenocarcinoma, adherent)” was run?
A: 0.889

Q: What about the IC50 of the same cell line?
A: > 4000 nM

Q: What does the source list for “NCI-H2170 (lung squamous cell carcinoma, adherent)”?
A: AUC: 0.919; IC50: > 4000 nM

Q: Which results are given for “NCI-H2228 (lung adenocarcinoma, adherent)”?
A: AUC: 0.74; IC50: 1780 nM

Q: PCI-38 (head and neck, adherent) was tested. Which AUC did it give?
A: 0.839

Q: And the IC50?
A: 2750 nM

Q: Which results are given for PL18 (pancreas, adherent)?
A: AUC: 0.976; IC50: > 4000 nM

Q: How did the AUC turn out when RD (rhabdomyosarcoma, adherent) was run?
A: 0.835

Q: And the IC50?
A: 2970 nM

Q: Which AUC does the source give for RT-112 (bladder, adherent) here?
A: 0.723

Q: And the IC50?
A: 1130 nM

Q: For SN12C (kidney, adherent), which AUC is on record?
A: 0.957

Q: And the IC50?
A: > 4000 nM

Q: What does the source list for SNU-398 (liver, adherent)?
A: AUC: 0.926; IC50: > 4000 nM

Q: What does the source list for SNU-1040 (large intestine, adherent)?
A: AUC: 0.977; IC50: > 4000 nM

Q: Which AUC does the source give for SW156 (kidney, adherent) here?
A: 0.979

Q: What about the IC50 of the same cell line?
A: > 4000 nM

Q: How did the AUC turn out when SW837 (large intestine, adherent) was run?
A: 0.908

Q: What about the IC50 of the same cell line?
A: > 4000 nM

Q: SW1088 (glioma, adherent) was tested. Which AUC did it give?
A: 0.885

Q: What about the IC50 of the same cell line?
A: > 4000 nM

Q: Which results are given for SW1116 (large intestine, adherent)?
A: AUC: 0.916; IC50: > 4000 nM

Q: Which AUC does the source give for SW1463 (large intestine, adherent) here?
A: 0.941

Q: What about the IC50 of the same cell line?
A: > 4000 nM

The cell lines below were run with Cc1cccc(-c2[nH]c(C(C)(C)C)nc2-c2ccc3nccnc3c2)n1 [SB-525334] in the same assay as above. Settings: top dose 20 µM; top dose inferred.
Method: as §1

Q: How did the AUC turn out when 769-P (kidney, adherent) was run?
A: 0.872

Q: What about the IC50 of the same cell line?
A: > 20000 nM

Q: What does the source list for A204 (rhabdomyosarcoma, adherent)?
A: AUC: 0.892; IC50: > 20000 nM

Q: For “BEN (non-small cell lung carcinoma, adherent)”, which AUC is on record?
A: 0.932

Q: And the IC50?
A: > 20000 nM

Q: BFTC-909 (kidney, adherent) was tested. Which AUC did it give?
A: 0.988

Q: And the IC50?
A: > 20000 nM

Q: Which results are given for BICR31 (head and neck, adherent)?
A: AUC: 0.985; IC50: > 20000 nM
